The values below come from article PMC1334387.

The target in assay [1] is T1, OR83b IC3 (412-459) (Drosophila) (UniProt Q9VNB5).
T1 sequence: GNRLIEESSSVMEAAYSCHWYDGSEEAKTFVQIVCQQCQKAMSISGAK
As to the kind of experiment: two-hybrid; GAL4 DNA-binding domain and activation domain fusions (pGBK-T7, pGAD-T7) in yeast AH109; six cotransformant colonies restreaked on media selecting for HIS3 and ADE2 reporters; growth scored after 3 d at 30 °C.

In assay [2] the target is T2, OR83b IC1 (97-134) (Drosophila) (UniProt Q9VNB5).
T2 sequence: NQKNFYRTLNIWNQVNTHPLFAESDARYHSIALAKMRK
The description is as above.

The target of assay [3] is T3, OR83b IC2 (226-351) (Drosophila) (UniProt Q9VNB5).
T3 sequence: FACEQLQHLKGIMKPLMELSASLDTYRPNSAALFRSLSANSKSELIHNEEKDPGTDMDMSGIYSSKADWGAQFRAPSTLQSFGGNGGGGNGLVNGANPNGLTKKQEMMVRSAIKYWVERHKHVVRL
The description is as above.

For assay [4], the target named is T4, OR83b N-term (1-47) (Drosophila) (UniProt Q9VNB5).
T4 sequence: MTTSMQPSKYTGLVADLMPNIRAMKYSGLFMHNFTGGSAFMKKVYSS
The assay is described as above.

Assay [5] concerns the target T5, YFP(1):OR83b / YFP(2):OR83b (OR83b with an N-terminal YFP fragment for the PCA) (Drosophila) (UniProt Q9VNB5).
T5 sequence: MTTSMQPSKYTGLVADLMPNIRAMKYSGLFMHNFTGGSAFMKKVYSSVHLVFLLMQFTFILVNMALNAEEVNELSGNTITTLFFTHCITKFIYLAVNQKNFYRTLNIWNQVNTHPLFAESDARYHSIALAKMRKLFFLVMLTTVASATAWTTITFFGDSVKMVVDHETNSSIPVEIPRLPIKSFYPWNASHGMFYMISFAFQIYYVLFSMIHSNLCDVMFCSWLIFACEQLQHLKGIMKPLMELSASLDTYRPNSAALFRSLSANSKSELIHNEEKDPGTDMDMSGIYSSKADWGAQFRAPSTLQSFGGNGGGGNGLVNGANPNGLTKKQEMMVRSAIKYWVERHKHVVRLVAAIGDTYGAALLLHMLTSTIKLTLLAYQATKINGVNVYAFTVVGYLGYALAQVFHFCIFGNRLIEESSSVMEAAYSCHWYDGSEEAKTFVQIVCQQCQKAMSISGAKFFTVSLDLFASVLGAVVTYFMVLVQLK
As to the kind of experiment: split reporter; YFP protein-fragment complementation assay (PCA) in vivo; complementary YFP(1)/YFP(2) N-terminal fusions co-expressed with Or83b-Gal4 in Or83b neurons of Or83b null-mutant (Or83b1/Or83b2) flies; intrinsic YFP fluorescence in antennal sections.

In assay [6] the target is T6, YFP(1):OR83b / YFP(2):OR83b (OR83b with an N-terminal YFP fragment for the PCA) (Drosophila), Q9VNB5.
T6 chain: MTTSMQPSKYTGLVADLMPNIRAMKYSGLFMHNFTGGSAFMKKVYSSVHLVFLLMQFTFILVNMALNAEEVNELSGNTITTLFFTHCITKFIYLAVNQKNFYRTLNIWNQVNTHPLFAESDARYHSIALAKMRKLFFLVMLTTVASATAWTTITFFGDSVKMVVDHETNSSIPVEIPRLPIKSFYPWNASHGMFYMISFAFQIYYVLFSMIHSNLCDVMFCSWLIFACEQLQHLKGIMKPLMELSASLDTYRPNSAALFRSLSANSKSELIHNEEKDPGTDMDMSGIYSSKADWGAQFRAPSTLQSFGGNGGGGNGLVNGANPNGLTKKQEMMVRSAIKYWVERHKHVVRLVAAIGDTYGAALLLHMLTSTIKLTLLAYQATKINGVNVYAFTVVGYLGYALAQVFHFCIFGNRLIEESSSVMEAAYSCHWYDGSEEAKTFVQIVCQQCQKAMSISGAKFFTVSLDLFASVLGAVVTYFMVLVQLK
As to the kind of experiment: split reporter; YFP PCA in vivo; complementary fusions co-expressed with Gr21a-Gal4 in Gr21a neurons, where no OR is expressed; intrinsic YFP fluorescence in antennal sections. Conditions: remark: other sources report otherwise.

Assay [7] deals with T6, YFP(1):OR83b / YFP(2):OR83b (OR83b with …). Nature of the assay: split reporter; YFP protein-fragment complementation assay (PCA) in vivo; complementary YFP(1)/YFP(2) N-terminal fusions co-expressed with Or83b-Gal4 in Or83b neurons of Or83b null-mutant (Or83b1/Or83b2) flies; intrinsic YFP fluorescence in antennal sections. Particulars: remark: other sources report otherwise.

Results are given in words; binding and its absence hold for the method and conditions named. For some of these results: Binding seen in cells or lysates may run through a third protein. Some binding calls cover weakened binding; strength is not graded here. For some of these results: Where a sequence is shown, tags or fusion partners need not be part of it.

B1: GR21a IC3 (357-416) (domain or fragment, UniProt Q9VPT1 357-416)
chain: NEAHYASRKVGLDFQTKLLNINLTAVDAATQKEVEMLLVAINKNPPIMNLDGYANINREL
B1: in assay [1], the binding entry is given as “no binding”.

B2: OR22a IC3 (305-359) (domain or fragment, UniProt P81909 305-359)
chain: DVSMETFPFCYLCNMIIDDCQEMSNCLFQSDWTSADRRYKSTLVYFLHNLQQPIT
In the case of B2, the binding entry in assay [1] is reported as “binds”.

Take NRANEICLENNRVAEAVYNVPWYEAGTRFRKTLLIFLMQTQHPME (domain or fragment, UniProt P81917 298-342) [OR43a IC3 (298-342)]: the binding result in assay [2] is listed as “no binding”; in assay [3], “no binding”; in assay [1], “binds”; in assay [4], “no binding”.

B3: YFP(1):OR43a / YFP(2):OR43a (OR43a with an N-terminal YFP fragment for the PCA) (receptor, UniProt P81917 1-376)
chain: MTIEDIGLVGINVRMWRHLAVLYPTPGSSWRKFAFVLPVTAMNLMQFVYLLRMWGDLPAFILNMFFFSAIFNALMRTWLVIIKRRQFEEFLGQLATLFHSILDSTDEWGRGILRRAEREARNLAILNLSASFLDIVGALVSPLFREERAHPFGLALPGVSMTSSPVYEVIYLAQLPTPLLLSMMYMPFVSLFAGLAIFGKAMLQILVHRLGQIGGEEQSEEERFQRLASCIAYHTQVMRYVWQLNKLVANIVAVEAIIFGSIICSLLFCLNIITSPTQVISIVMYILTMLYVLFTYYNRANEICLENNRVAEAVYNVPWYEAGTRFRKTLLIFLMQTQHPMEIRVGNVYPMTLAMFQSLLNASYSYFTMLRGVTGK
On to B3, for which the binding result in assay [5] is reported as “binds”.

Take HRLGQIGGEEQSEEERFQRLASCIAYHTQVMRYVWQLNK (domain or fragment, UniProt P81917 208-246) [OR43a IC2 (208-246)]: the binding entry in assay [2], in assay [3], in assay [1] and in assay [4] was “no binding” each time.

B4: YFP(1):OR83b / YFP(2):OR83b (OR83b with an N-terminal YFP fragment for the PCA), Q9VNB5 1-486 (receptor)
chain: MTTSMQPSKYTGLVADLMPNIRAMKYSGLFMHNFTGGSAFMKKVYSSVHLVFLLMQFTFILVNMALNAEEVNELSGNTITTLFFTHCITKFIYLAVNQKNFYRTLNIWNQVNTHPLFAESDARYHSIALAKMRKLFFLVMLTTVASATAWTTITFFGDSVKMVVDHETNSSIPVEIPRLPIKSFYPWNASHGMFYMISFAFQIYYVLFSMIHSNLCDVMFCSWLIFACEQLQHLKGIMKPLMELSASLDTYRPNSAALFRSLSANSKSELIHNEEKDPGTDMDMSGIYSSKADWGAQFRAPSTLQSFGGNGGGGNGLVNGANPNGLTKKQEMMVRSAIKYWVERHKHVVRLVAAIGDTYGAALLLHMLTSTIKLTLLAYQATKINGVNVYAFTVVGYLGYALAQVFHFCIFGNRLIEESSSVMEAAYSCHWYDGSEEAKTFVQIVCQQCQKAMSISGAKFFTVSLDLFASVLGAVVTYFMVLVQLK
For the molecule B4, the binding result in assay [6] and in assay [7] was “binds” in each case.
